According to PubChem BioAssay (Tox21):
The inconclusive results got no clear call from the source; some entries with a clear call stand among them for comparison. For some assays here: Potencies of inconclusive entries are left out as doubtful fits. Some compounds were tested as several samples or in several runs, with calls that do not always agree. Active and inactive are the calls of the source. Unless noted, calls follow the shape of the dose curve; as a rule, active = well fitted curve in the direction sought with a large enough effect in the repeat runs; inconclusive = weak or mixed curves; inactive = no such curve, though single readings can be large; an effect the other way counts as inactive or inconclusive.

Key:
[1] = biological target: Progesterone receptor (Homo sapiens) (UniProt P06401); test: qHTS assay to identify small molecule antagonists of the progesterone receptor (PR) signaling pathway (AID 1346795; active = well fitted inhibition curve with a large enough effect in the signal ratio in the repeat runs, not every such curve was filed as active; inconclusive = weak or mixed curves; the % refers to the signal ratio; also: potency is read from the fitted curve at half-maximal effect); details: PR-UAS-bla HEK293T, beta-lactamase FRET ratio, 16 h; activity change, negative = inhibition: at 92.4 µM (top of the series) unless noted
How it was run: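 Stimulus R5020 at 1 nM final; cells HEK293T PR-UAS-bla; medium with 2% charcoal-stripped FBS; compound exposure 16 hr at 37C, 5% CO2; detection by FRET beta-lactamase substrate, 2 hr, room temperature.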

[2] = qHTS assay to identify small molecule antagonists of the progesterone receptor (PR) signaling pathway - cell viability counter screen (AID 1346798); also: nearly all actives have a fitted effect of over 50% in size; also: potency is read from the fitted curve at half-maximal effect
How it was run: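 In the same plates used for the beta-lactamase readout, cell viability of compound- and R5020-treated PR-UAS-bla HEK293T cells (16 hr, 37C) was assessed by CellTiter-Glo luminescence.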

[3] = qHTS assay to identify small molecule agonists of the progesterone receptor (PR) signaling pathway - cell viability counter screen (AID 1346799; calls by dose curve; also: nearly all actives have a fitted effect of over 45% in size; also: potency is read from the fitted curve at half-maximal effect)
How it was run: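 Multiplexed viability read: CellTiter-Glo luminescence, 30 min RT, following LiveBLAzer FRET measurement on PR-UAS-bla HEK293T cells exposed to compounds 16 hr.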

[4] = qHTS assay to identify small molecule agonists of the TGF-beta/Smad signaling pathway (AID 1346859; active = well fitted activation curve with a large enough effect in the signal ratio in the repeat runs, not every such curve was filed as active; inconclusive = weak or mixed curves; the % refers to the signal ratio; also: potency is read from the fitted curve at half-maximal effect); details: SBE-bla HEK293T, TGF-beta/Smad beta-lactamase reporter, 5 h; activation: at 76.8 µM (top of the series) unless noted
How it was run: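 Screening used HEK 293T SBE-bla cells at 4,000/well. Test agents: 5 hr, 37 C. Detection: FRET substrate, 2 hr RT, then excitation 405 nm with emissions at 460 and 530 nm.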

[5] = qHTS assay to identify small molecule antagonists of the TGF-beta/Smad signaling pathway - cell viability counter screen (AID 1346824); also: nearly all actives have a fitted effect of over 50% in size
How it was run: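 Cytotoxicity counter-screen run in the same wells as the beta-lactamase Smad reporter read: CellTiter-Glo luminescence after 30 min at room temperature. HEK 293T SBE-bla cells had 5 hr compound exposure at 37 C with TGF-beta1 (0.25 ng/mL stock).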
% is scaled to controls: 0 for no effect and ±100 for the full control effect; tags tell the direction and shape of the fitted curve or compound fluorescence and quenching.

Chain of UniProt P06401 (P06401 whole entry, looked up): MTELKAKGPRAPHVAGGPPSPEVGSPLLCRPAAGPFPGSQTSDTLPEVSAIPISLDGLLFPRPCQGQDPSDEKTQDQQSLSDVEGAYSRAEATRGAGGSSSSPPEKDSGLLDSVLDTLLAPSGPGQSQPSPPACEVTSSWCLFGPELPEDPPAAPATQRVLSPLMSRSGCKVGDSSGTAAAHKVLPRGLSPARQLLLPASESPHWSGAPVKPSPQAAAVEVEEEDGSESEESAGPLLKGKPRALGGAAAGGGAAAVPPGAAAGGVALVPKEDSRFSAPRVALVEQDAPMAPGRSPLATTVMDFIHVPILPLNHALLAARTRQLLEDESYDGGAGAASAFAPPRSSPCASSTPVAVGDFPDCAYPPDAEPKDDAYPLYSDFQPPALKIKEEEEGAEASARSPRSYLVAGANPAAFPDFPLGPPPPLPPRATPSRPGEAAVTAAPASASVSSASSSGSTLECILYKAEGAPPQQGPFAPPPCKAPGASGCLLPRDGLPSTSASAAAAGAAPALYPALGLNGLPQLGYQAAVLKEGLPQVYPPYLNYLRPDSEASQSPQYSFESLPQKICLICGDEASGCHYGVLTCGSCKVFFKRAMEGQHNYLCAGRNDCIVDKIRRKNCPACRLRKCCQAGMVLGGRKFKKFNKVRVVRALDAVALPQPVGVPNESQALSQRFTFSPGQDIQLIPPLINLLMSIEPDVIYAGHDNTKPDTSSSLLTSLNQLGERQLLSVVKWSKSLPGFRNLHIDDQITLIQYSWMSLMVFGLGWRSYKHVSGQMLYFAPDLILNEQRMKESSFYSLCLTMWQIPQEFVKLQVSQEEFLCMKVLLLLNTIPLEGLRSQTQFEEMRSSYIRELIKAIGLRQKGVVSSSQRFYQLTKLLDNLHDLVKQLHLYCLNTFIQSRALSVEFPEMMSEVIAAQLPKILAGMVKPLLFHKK

Row | Compound | Potency [1] | Potency [2] | Potency [3] | Potency [4] | Potency [5] | activity change, negative = inhibition [1]
1 | CC(=N\O)/C(C)=N/O | inconclusive [rising, partial curve] | inconclusive [cytotoxic, full curve] | inconclusive [cytotoxic, full curve] | inactive | – | –
2 | c1ccc(Nc2ccccc2)cc1 | active: 48.5 µM and inactive | inconclusive [cytotoxic, single point] | inconclusive [rising, single point] | inconclusive [activator, partial curve] | inactive | –
3 | CCOC(=O)/C=C(C)/C=C/C=C(C)/C=C/c1c(C)cc(OC)c(C)c1C | inconclusive | inconclusive [rising, partial curve] | – | inconclusive [fluorescent, partial curve, poor fit] | – | –
4 | COc1ccc(-c2coc3cc(O)ccc3c2=O)cc1 | inconclusive [falling, partial curve] | inconclusive [rising, partial curve, poor fit] | inconclusive [rising, full curve] | – | – | –
5 | CCc1ccc(O)c(C(C)(C)C)c1 | – | inactive | inconclusive [cytotoxic, single point] | – | – | inconclusive: 4.74%
6 | COc1ccccc1OCC(O)CN1CCN(CC(=O)Nc2c(C)cccc2C)CC1 (stereo not drawn) | inactive | – | inactive | – | – | –
7 | C=C1C(=C/C=C2\CCC[C@]3(C)[C@@H]([C@H](C)/C=C/[C@@H](O)C4CC4)CC[C@@H]23)C[C@@H](O)C[C@@H]1O | active: 11.9 µM | inconclusive [cytotoxic, single point] | inconclusive [rising, partial curve] | – | – | –
